Measurements taken from paper PMC4336329 (PLoS ONE, 2015).
Hit rate of the full screen: of about 310,000 compounds, about 14,000 (4.5%) showed an effect of 50% or more. Effects have a minus sign here. The list shows a part of the results.

biological target: human ether-à-go-go-related gene (hERG) potassium channel (human, UniProt Q12809); assay: primary screen, population patch clamp on CHO cells stably expressing hERG
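Also: peak tail current of the secondary pulse compared with the same well before compound.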

Sequence of human ether-à-go-go-related gene (hERG) potassium channel (Q12809 whole entry, looked up): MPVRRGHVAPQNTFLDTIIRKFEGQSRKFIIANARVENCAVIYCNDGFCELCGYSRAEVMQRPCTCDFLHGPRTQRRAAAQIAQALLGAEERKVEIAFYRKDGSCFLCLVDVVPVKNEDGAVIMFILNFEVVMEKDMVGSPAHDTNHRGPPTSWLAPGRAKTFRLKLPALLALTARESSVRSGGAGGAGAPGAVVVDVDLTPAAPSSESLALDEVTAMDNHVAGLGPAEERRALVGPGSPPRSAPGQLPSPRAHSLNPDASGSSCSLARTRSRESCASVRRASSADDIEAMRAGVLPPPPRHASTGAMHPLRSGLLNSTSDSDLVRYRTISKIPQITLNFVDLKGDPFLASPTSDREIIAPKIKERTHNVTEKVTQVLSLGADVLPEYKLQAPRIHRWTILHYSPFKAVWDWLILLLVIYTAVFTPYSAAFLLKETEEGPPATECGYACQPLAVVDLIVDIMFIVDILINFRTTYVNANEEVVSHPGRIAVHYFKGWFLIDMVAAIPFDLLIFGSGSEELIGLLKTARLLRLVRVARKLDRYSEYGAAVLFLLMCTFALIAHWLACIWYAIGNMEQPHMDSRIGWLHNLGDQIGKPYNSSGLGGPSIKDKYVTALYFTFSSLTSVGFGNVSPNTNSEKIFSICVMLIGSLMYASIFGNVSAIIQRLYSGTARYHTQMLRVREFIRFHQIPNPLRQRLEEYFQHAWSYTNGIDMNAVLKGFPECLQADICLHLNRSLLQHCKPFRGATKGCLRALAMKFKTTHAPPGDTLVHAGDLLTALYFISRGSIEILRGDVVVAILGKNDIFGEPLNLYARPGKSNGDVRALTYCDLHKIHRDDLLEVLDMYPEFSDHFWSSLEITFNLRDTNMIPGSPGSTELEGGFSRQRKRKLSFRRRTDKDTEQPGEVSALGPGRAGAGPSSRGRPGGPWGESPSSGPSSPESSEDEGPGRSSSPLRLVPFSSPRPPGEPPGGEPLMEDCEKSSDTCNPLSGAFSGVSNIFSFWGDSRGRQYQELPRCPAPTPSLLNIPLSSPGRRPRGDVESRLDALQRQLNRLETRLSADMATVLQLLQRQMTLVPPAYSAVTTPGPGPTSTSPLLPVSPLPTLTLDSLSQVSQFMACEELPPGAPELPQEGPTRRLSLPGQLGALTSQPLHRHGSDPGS

Row | SMILES | hERG current change (%, negative = inhibition) at 10uM [%]
1 | CCOc1ccccc1OCCCC(=O)ON=C(N)c1ccccc1 | 6.75
2 | Cn1c(SCC(=O)O)nnc1C1CCCCC1 | 3.75
3 | COC(=O)CSc1nnc(Cc2cc(=O)[nH]c(=O)[nH]2)n1-c1cccc(OC)c1 | -4.88
4 | Cn1c(CCNC(=O)c2ccco2)nc2cc(NS(=O)(=O)c3ccc(Cl)cc3)ccc21 | -65.2
5 | CC1(C)CC(=O)c2cnc3c(C#N)cnn3c2C1 | -0.692
6 | C=CCNC(=O)NC(=O)COC(=O)/C(C#N)=C/c1cc(C)n(CCC(C)C)c1C | 12.8
7 | Cc1cc(C)c(NC(=O)c2cccs2)c(C)c1NC(=O)c1cccs1 | 20.6
8 | COc1cc(-c2nc(-c3ccc4c(c3)-c3ccccc3S4(=O)=O)c(-c3ccccc3)[nH]2)cc(OC)c1OC | 9.93
9 | CC(=O)Nc1ccccc1-c1nc2ccccc2nc1OCC(=O)c1ccc2ccccc2c1 | 15.8
10 | Cc1[nH]c(=O)[nH]c(=O)c1S(=O)(=O)N1CCCC(C(=O)NCCC2=CCCCC2)C1 (stereo not shown) | 8.4
11 | Nc1nc2ccc(S(=O)(=O)N3CCCCC3)cc2s1 | 11.5
12 | CCCS(=O)(=O)N1CCC(C(=O)c2cccc(C(F)(F)F)c2)CC1 | -37.6
13 | COc1ccc(C(C(=O)NC2CCCC2)N(CCCO)C(=O)Cn2nnc(-c3ccc(C)o3)n2)cc1 (stereo not shown) | -10.8
14 | Cc1cccc(CSC2=NN3CCCC(=O)N=C3S2)c1 | -17.7
15 | COc1cc(CC(=O)OCC(=O)N2CC(C)CC(C)C2)cc(OC)c1OC (stereo not shown) | 30.9
16 | CCC(CC)C(=O)Nc1nnc(S(=O)(=O)N2CCc3ccccc32)s1 | 17.9
17 | Clc1cc(Br)ccc1OCCCNCc1ccccc1.O=C(O)C(=O)O | -30.1
18 | COc1cc(C)c(Cl)cc1S(=O)(=O)n1ccnc1 | 11.6
19 | CC(C)(C)OC(=O)N/N=C/c1cccc([N+](=O)[O-])c1 | 2.34
20 | CCN(CC)c1nc(Nc2ccccc2)nc(Oc2ccc(=O)[nH]n2)n1 | -14.2
21 | Cc1ccc2c(c1)CC1(CN2C)C(=O)NC(=O)N(C(C)C)C1=O (stereo not shown) | 24.1
22 | CCOC(=O)C1C2C=CC3(CN(c4cccc(Cl)c4)C(=O)C13)O2 (stereo not shown) | 9.65
23 | O=C(CN1C(=O)NC2(CCCCC2)C1=O)N1CCN(S(=O)(=O)c2ccc(F)cc2)CC1 | 4.02
24 | O=C(NCCc1ccccc1)C1=CCN(S(=O)(=O)c2ccccc2)CC1 | 0.496
25 | Cc1ccc(NC(=O)CS(=O)c2ccccc2N)c(C)c1 (stereo not shown) | 24.9
26 | COc1ccccc1N1CCN(C(=O)c2ccc(-c3nc4ccccc4s3)o2)CC1 | -3.16
27 | COc1ccccc1C(=O)N/C(=C\c1ccc(Br)cc1)C(=O)NCCC(=O)O | 23.2
28 | CCCCC(c1nnnn1CC1CCCO1)N1CCN(Cc2ccccc2)CC1.Cl (stereo not shown) | -47.2

Row | SMILES | hERG current change (%, negative = inhibition) at 10uM [%]
29 | O=C(N=C1SC2CS(=O)(=O)CC2N1c1ccccc1)c1cccc([N+](=O)[O-])c1 (stereo not shown) | 11.5
30 | O=C(N/N=C/c1ccc(O)cc1)c1cc[n+](Cc2ccccc2)cc1.[Cl-] | -5.97
31 | CCOc1ccc2c(c1)c(=O)c(S(=O)(=O)c1ccc(CC)cc1)cn2C | 13.9
32 | COc1ccc(CNC(=O)c2ccncc2)cc1 | 2.81
33 | COC(=O)c1ccccc1Sc1snnc1C | 10.1
34 | COc1ccc(OCc2cc(C(=O)NC3CCOC(C)(C)C3)no2)c2ccccc12 (stereo not shown) | 11.7
35 | O=C(COc1ccc(S(=O)(=O)N2CCOCC2)cc1)N1CCc2ccccc2C1 | -55.9
36 | CCOc1ccc(C(=O)N/N=C/c2ccc(-c3ccc(S(=O)(=O)Nc4ncccn4)cc3)o2)cc1 | 15.8
37 | Cc1ccc(NS(=O)(=O)c2ccc3c(c2)CCC(=O)N3)cc1C | 0.68
38 | COCCN(CCOC)S(=O)(=O)c1ccc(C(=O)NCCCN2CCOCC2)cc1 | 11.1
39 | CCOC(=O)c1c(C)oc2cc(Cl)c(O)c(CN(C)C)c12 | -6.79
40 | COc1nc(-c2ccc(C)cc2)ccc1-c1noc(-c2cccnc2)n1 | 13.5
41 | Cc1nn(C)c(C)c1S(=O)(=O)NCc1cccs1 | 2.54
42 | c1ccc(-c2noc(CN3CCN(c4ccccc4)CC3)n2)cc1 | -13
43 | COc1ccc(C2/C=C\CN(C(=O)c3ccc(C)cc3)[C@H](Cc3ccccc3)C(=O)N2Cc2ccc(F)cc2)cc1 (stereo partly shown) | 14.6
44 | Cc1ncn(-c2ccc(C(=O)Oc3ccccc3)cn2)n1 | 32.4
45 | COCc1nnc(NC(=O)c2cccc(NC(=O)C(C)C)c2)s1 | 10.6
46 | COc1cc(/C=C/CO)ccc1O[C@@H]1O[C@H](CO)[C@@H](O)[C@H](O)[C@H]1O | 21.6
47 | O=c1[nH]cnc2[nH]ncc12 | 34
48 | O=S(=O)(NCC(c1ccc2c(c1)OCO2)N1CCOCC1)c1ccc(Cl)cc1 (stereo not shown) | -23.6
49 | CN(C)S(=O)(=O)N(CC(=O)N(Cc1ccccc1)Cc1ccccc1)c1ccccc1 | -1.97
50 | CCOc1ccc(-n2ccnc(SCC(=O)NCCc3ccccc3)c2=O)cc1 | -11.4
51 | COc1ccc(NC(=S)Nc2cc(-c3ccccc3)[nH]n2)cc1Cl | 12
52 | COc1ccccc1C(C)NCC(=O)NCC(=O)Nc1ccc(F)c(F)c1F (stereo not shown) | -3.27
53 | CC1Cc2nc(SCC(=O)NCCc3ccccc3)n(C)c(=O)c2S1 (stereo not shown) | -19.2
54 | CCCOP(=O)(c1ccc(N(C)C)cc1)C(Nc1ccccc1)c1ccc(N(C)C)cc1 (stereo not shown) | 10.8
55 | NC(=O)NC(=O)COC(=O)c1ccc(Cl)c(S(=O)(=O)N(Cc2ccccc2)c2ccc(Cl)cc2)c1 | 2.52
